From the supplement of paper PMC3334620
Whole data set: some 33,000 sequences, median “E-score (-0.5 to 0.5)” near -0.04, cut for the highest 2% near 0.36. The list shows a part of the results.

These sequences were tested against T1, Hmlalpha2 (UniProt P0CY09) (assay: PBM E-score (8-mer binding enrichment) (E-score (-0.5 to 0.5)); higher = stronger / more preferred TF binding; most listed sequences are background and not binding sites). Details: protein concentration: 200 nM; construct: GST-full length.
T1 sequence: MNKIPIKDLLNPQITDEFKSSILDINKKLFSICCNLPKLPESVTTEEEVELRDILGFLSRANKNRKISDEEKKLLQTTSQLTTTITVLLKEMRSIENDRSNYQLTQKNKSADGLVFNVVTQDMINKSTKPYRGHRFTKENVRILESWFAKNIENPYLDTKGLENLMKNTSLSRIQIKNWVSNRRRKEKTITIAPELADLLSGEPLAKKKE
Procedure, shortened: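 Using PURExpress in vitro transcription/translation, GST-tagged yeast transcription factors were made in full-length or DNA-binding-domain form. These were applied at about 100-200 nM to double-stranded universal all-10-mer Agilent arrays, and bound protein was detected with fluorescent anti-GST. Scans were normalised with masliner before the Universal PBM Analysis Suite assigned E-scores to ungapped eight-base words pooled with their reverse complements.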

| Sequence | PBM E-score |
| --- | --- |
| CAAGAACG | 0.144 |
| GATGTGCA | -0.091 |
| ATCAAATA | 0.0702 |
| ATGTTTTC | 0.421 |
| ATACCTGC | -0.0573 |
| CCATTCAA | 0.127 |
| AGCTAATG | -0.0817 |
| ATCGTAAT | 0.273 |
| CGAGACAA | -0.0967 |
| ACAAAGCA | 0.24 |
| AGCTCACG | -0.0176 |
| ACTTAACA | 0.388 |
| CGCTACAC | 0.255 |
| CGCCGCGC | -0.047 |
| CAGAAGCC | -0.169 |
| TATCGCAA | -0.0522 |
| GAGTGAAC | -0.0242 |
| AATGTGTA | 0.371 |
| CACTATAC | 0.129 |
| GGAGACAC | -0.0636 |
| AGGGACGG | -0.331 |
| ACATCTAA | 0.0565 |
| GCGCGCCA | 0.0344 |
| CCTCGCAA | -0.21 |
| AACCCTCG | -0.0216 |

| Sequence | PBM E-score |
| --- | --- |
| CAGAGCGA | -0.187 |
| GTGGTTTA | 0.0203 |
| AGGGGCGA | -0.301 |
| TTATTCAA | 0.248 |
| AGCAGTAA | 0.0836 |
| ATGATAGG | -0.27 |
| AGTCAAAT | 0.0681 |
| AGGGTCCA | -0.327 |
| GCATACGC | 0.0496 |
| ATACCCGA | -0.119 |
| AGAGTAGG | -0.0491 |
| ACTCTTGC | -0.055 |
| CGCTTCAC | -0.034 |
| GGGGAACA | -0.173 |
| GAATTGTC | -0.0602 |
| CGACCCAA | -0.0413 |
| ATCTGAGG | -0.187 |
| ACGTTCTC | 0.14 |
| AGCAGAGG | -0.25 |
| CTCCCGCC | -0.181 |
| CTAAGTGA | 0.106 |
| ATGCTATC | -0.0381 |
| TCCAGAAA | 0.15 |
| CAGTTACG | 0.0563 |
| ACTCGATC | 0.0217 |

| Sequence | PBM E-score |
| --- | --- |
| GGTGAGAA | -0.0632 |
| CAAGGCGA | -0.143 |
| CACTTGCA | -0.0966 |
| ACTGTGAA | 0.0776 |
| ACTCTATG | 0.0349 |
| ACGGTCAG | -0.0812 |
| AGGAAACG | -0.152 |
| CCCGTAAC | 0.00141 |
| TGAGGCAA | -0.138 |
| ACATTGAG | 0.0552 |
| GACTTAGA | -0.0336 |
| CAACAAAA | 0.23 |
| TCCGCGGA | -0.0621 |
| TTACATAA | 0.474 |
| CACCCTTC | -0.182 |
| CTCCGGAG | -0.341 |
| TGCGAACA | 0.126 |
| ATCGCTAG | -0.143 |
| GGGGAAGA | -0.268 |
| AAAATGAG | -0.0631 |
| CACTGTGC | 0.0252 |
| CACAGGGG | -0.0674 |
| AATGACGG | -0.0373 |
| CCTGTCGA | 0.0365 |
| CTGGTAAC | 0.0518 |

| Sequence | PBM E-score |
| --- | --- |
| ACCATCCC | -0.217 |
| ACTCCAAA | -0.0902 |
| CTTCCCTA | -0.266 |
| AGTTGCCA | -0.222 |
| CTGCTAAC | -0.0554 |
| ACCACACC | -0.188 |
| AAGGAGGT | -0.27 |
| GGGACCCC | -0.336 |
| AGCCGCTG | -0.237 |
| ACCCGTGA | -0.178 |
| CACCTTCA | -0.0799 |
| CAAGTACC | 0.0735 |
| AGCGCCAT | -0.21 |
| ACGGAGTG | -0.0802 |
| AACTCTAG | -0.0239 |
| AGATCCCT | -0.175 |
| AGGTCGGC | -0.305 |
| CTCCTCGC | -0.164 |
| AGCCGCTC | -0.0797 |
| ATATGCGG | -0.0308 |
| AAACTCGT | 0.0763 |
| CCCTTCAA | 0.0627 |
| ACTCGAGC | -0.0138 |
| AAATCGGT | -0.143 |
| TAGGAGAA | 0.122 |

| Sequence | PBM E-score |
| --- | --- |
| AGTATTTC | 0.0665 |
| ATGACCGG | -0.246 |
| TATGTGGA | 0.123 |
| GATTCTCC | -0.339 |
| CCCCTGAC | -0.00088 |
| GTGGATTA | -0.0557 |
| AGCAGGAC | -0.0809 |
| CACTCAGA | -0.0299 |
| AACGATCA | 0.0598 |
| AAACTGAG | -0.191 |
| CAGTTAGC | -0.262 |
| GTGGCCGA | -0.22 |
| ACTAGGAT | 0.0792 |
| CCCGTACC | -0.247 |
| ATAAGCGG | -0.219 |
| AATCTGGG | -0.297 |
| GCACCCAC | 0.0011 |
| AAGGGGAA | -0.0477 |
| AGCTAGGA | -0.163 |
| AACAGACT | 0.105 |
| CAGTGGTA | -0.142 |
| CCCCGAAC | -0.199 |
| AGTAGAAG | -0.025 |
| AAGACAGT | -0.0478 |
| ACAGGGGC | -0.195 |

| Sequence | PBM E-score |
| --- | --- |
| AAAGCTAC | 0.0863 |
| CACCAACG | -0.0538 |
| CTCCTCTA | -0.127 |
| TCGTCTCA | -0.136 |
| CCCCCGCG | -0.241 |
| CAGCAAAA | 0.0513 |
| GCATTCGA | -0.118 |
| CTCTTACC | 0.207 |
| AAATTTCG | 0.0127 |
| AGCAGCCT | -0.0877 |
| CCGTAAAA | 0.12 |
| GGGTAAAA | 0.185 |
| GACGGAAA | -0.16 |
| CTTGCCCA | -0.093 |
| AGGAAACC | -0.0996 |
| AGTCAGTG | -0.191 |
| ACACGGGG | 0.3 |
| AATGAGAG | -0.123 |
| AACACTGT | 0.143 |
| CCGCGGAC | -0.239 |
| ATTGGCCC | -0.212 |
| CACCAGCG | -0.243 |
| ATACTACA | 0.32 |
| AACTTAAA | 0.232 |
| AACGTTTC | -0.00212 |

| Sequence | PBM E-score |
| --- | --- |
| CAGTAAAG | 0.00916 |
| GGTAGTGA | -0.219 |
| CGCAGAAA | -0.155 |
| GGACGACA | 0.053 |
| GCTTCAGA | -0.171 |
| ATCCAAAA | 0.0105 |
| GAACTAGC | -0.178 |
| CTCATGAG | -0.0301 |
| CCATAAGA | -0.237 |
| AGCGAATG | -0.114 |
| ACCATACG | 0.0287 |
| AGCGGGGC | -0.167 |
| AAGGCCTG | -0.121 |
| GGTTTACA | 0.396 |
| AGTAACGC | 0.114 |
| AAACATGC | 0.37 |
| ATTAGCTG | 0.0197 |
| AAAGTTTA | 0.25 |
| TAATTACA | 0.462 |
| CGGGCGCA | -0.164 |
| GATGAAAC | 0.15 |
| AACCTTCC | -0.0676 |
| CTGAAATA | -0.0461 |
| CAGAAACG | 0.156 |
| GCGTCACC | -0.168 |

| Sequence | PBM E-score |
| --- | --- |
| ATCGAAAA | 0.0165 |
| ATAGCCAC | -0.157 |
| CTTCTACC | -0.0533 |
| CCGATGTA | 0.155 |
| ACATAGGC | 0.351 |
| CCTCCGCG | -0.147 |
| AGACCGTC | -0.162 |
| AAAGTACC | 0.107 |
| TATAGAAA | 0.116 |
| ACTATAGT | 0.0634 |
| AATATCAG | -0.0136 |
| GTTCGCAA | 0.0948 |
| CTGCGGCC | -0.161 |
| CTGCGGGC | -0.187 |
| GAAATAGA | 0.0697 |
| GGCCCCCC | -0.464 |
| GAAGTACC | -0.0771 |
| GTCTCGCA | -0.167 |
| CAGTCGTA | 0.0455 |
| AATCGGGT | 0.0647 |
| ACAACACC | 0.182 |
| CTTAAAAC | 0.201 |
| CGCTAGAC | -0.226 |
| CGCCGGCG | -0.0773 |
| CATTAAAG | 0.248 |

| Sequence | PBM E-score |
| --- | --- |
| CTAAGAGC | -0.324 |
| AACCTCGA | -0.0213 |
| ATTTGAGA | -0.0947 |
| ACGGCGTA | 0.242 |
| GTGTTCTA | 0.233 |
| AAAAGTAT | 0.0425 |
| AAGGAACC | -0.0327 |
| AGAAGTGC | -0.0933 |
| AATCAACC | -0.103 |
| AGCAAGCT | -0.132 |
| AAGACCCC | -0.117 |
| AAAATACC | 0.0851 |
| CGAATCAC | 0.0204 |
| TAATGGAA | 0.1 |
| ACTCACCA | -0.0493 |
| ACGCTGAG | -0.111 |
| TAGACTGA | -0.0778 |
| CTTCTAAA | -0.0253 |
| GTTCGGCA | -0.0575 |
